We go through 67 sequences from the supplement of paper PMC10126150.

Values marked as one replicate rest on one cluster of the flow cell; about a third of the high ones do not repeat.
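Note: ATP exposure 15 min at 22 °C before imaging.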

The test system of this data set is ATP. The data set can be described thus: switch fluorescence ratio, 500 uM ATP over buffer (Cy3 cluster intensity, sum of 5 cycles each) (fold (ratio)); higher = stronger signal-on switching upon ATP binding; sequences stand for … in TCGTCGGCAGCGTCAGATGTGTATAAGAGACAGTTTTTTTTTTTTTTTTTTTTTTTTT…TC. The conditions noted are these: aptamer strand: ATP DNA aptamer (quencher-CACCTGGGGGAGTATTGCGGAGGAAGG + anchor), 100 nM annealed; ATP concentration: 500 uM; one replicate. In a few lines:
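Clusters carrying Cy3-labelled switching strands on a modified Illumina MiSeq flow-cell were annealed to 100 nM quencher-labelled ATP aptamer and imaged in selection buffer. They were imaged again after 15 min with 500 uM ATP at 22 °C, over five buffer/ATP cycles with NaOH stripping and re-annealing in between. For each cluster, the fluorescence ratio is the summed Cy3 intensity of the target cycles divided by that of the buffer cycles, averaged per switch-domain sequence. Clusters outside 100-1000 RFU were left out.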
As for GGCGGCCGAA, the switch fluorescence ratio is 1.

For the sequence AGGCTCTGCT, the switch fluorescence ratio turned out to be 0.959.

Turning to TCGCTCATTG, the switch fluorescence ratio worked out at 0.984.

Consider GCCTCGTTGC, for which the switch fluorescence ratio was determined as 0.962.

Turning to GCCACCGGAT, the switch fluorescence ratio was determined as 1.08.

For GCGGTCAATT, the switch fluorescence ratio was found to be 1.19.

AGTTATTATA: the switch fluorescence ratio is 1.01.

Regarding CTAGTAGGCT, the switch fluorescence ratio was determined as 1.

As for GCTGCGAGGC, the switch fluorescence ratio was found to be 1.16.

Regarding TTTGGCGGC, the switch fluorescence ratio worked out at 1.01.

Take TACCAAGTTA: the switch fluorescence ratio is 0.969.

On to AGTAAATAAG, for which the switch fluorescence ratio is 1.01.

As to AGGCTGTAT, the switch fluorescence ratio worked out at 1.02.

Take GTGTACGGCT: the switch fluorescence ratio was determined as 1.09.

Turning to TAACAACAAA, the switch fluorescence ratio is 0.986.

Turning to ACGGTGGCCG, the switch fluorescence ratio is 1.16.

Regarding GCACGGGTCA, the switch fluorescence ratio turned out to be 1.07.

Regarding GGACGTCCTT, the switch fluorescence ratio is 1.01.

For the sequence AACGGATTAA, the switch fluorescence ratio amounted to 1.06.

For the sequence ACTTGAACAG, the switch fluorescence ratio turned out to be 1.07.

For the sequence GGGATAAAAG, the switch fluorescence ratio came out at 0.994.

In the case of GCTTAGCCCG, the switch fluorescence ratio amounted to 0.995.

Consider TGTCATATGT, for which the switch fluorescence ratio came to 1.06.

CGTCGGGATG: the switch fluorescence ratio was found to be 0.99.

In the case of TATAAGCCCG, the switch fluorescence ratio was determined as 1.

With ACTTTCGGCA, the switch fluorescence ratio turned out to be 1.06.

Consider GGGAACTTAG, for which the switch fluorescence ratio came out at 1.02.

With ATGGTCTCGT, the switch fluorescence ratio was 0.967.

Take AAACGGCGGA: the switch fluorescence ratio was determined as 1.02.

For the sequence TTAACGCTAG, the switch fluorescence ratio was 1.06.

AGTCCTATAA: the switch fluorescence ratio was 0.966.

Regarding CAGTGTCGA, the switch fluorescence ratio was 1.02.

Regarding TGTAAGTTCC, the switch fluorescence ratio stood at 1.08.

AGGCAAGTC: the switch fluorescence ratio was 1.06.

With ACCATAGAGC, the switch fluorescence ratio turned out to be 1.05.

Take CAAGAGTTAA: the switch fluorescence ratio came out at 0.981.

Regarding CGCCGGCAAG, the switch fluorescence ratio stood at 1.17.

Turning to AGCTAGCGAG, the switch fluorescence ratio stood at 1.03.

With TTATACTA, the switch fluorescence ratio is 1.

For the sequence ACCAAGCCAC, the switch fluorescence ratio was 1.22.

In the case of TGGATAGCGT, the switch fluorescence ratio was 0.972.

Regarding GAGAGATGT, the switch fluorescence ratio is 0.978.

As to ACACCGAGAT, the switch fluorescence ratio was 1.14.

Turning to AACGCTCCTC, the switch fluorescence ratio is 1.32.

Turning to TGAACCTAGC, the switch fluorescence ratio was 1.25.

On to TATGTTATCC, for which the switch fluorescence ratio was 1.

As to AATTCTCCAC, the switch fluorescence ratio is 1.09.

For the sequence ATCAAAGCAT, the switch fluorescence ratio was found to be 0.967.

With AACCATTTGA, the switch fluorescence ratio was 1.02.

Turning to ACCCGAAGGT, the switch fluorescence ratio was found to be 1.02.

With TTCCCACGAT, the switch fluorescence ratio stood at 1.02.

For the sequence TCGGAAAGAA, the switch fluorescence ratio worked out at 1.03.

Take GACTGATCA: the switch fluorescence ratio was determined as 0.927.

Regarding GGTCCTTGTA, the switch fluorescence ratio is 0.943.

As to AACGGCAAA, the switch fluorescence ratio amounted to 1.08.

Turning to GGGGAGCGCA, the switch fluorescence ratio amounted to 1.01.

With ATGTGGCGCT, the switch fluorescence ratio is 1.06.

Turning to TTACCAATAA, the switch fluorescence ratio was determined as 5.18.

As for GGTCTAGTTA, the switch fluorescence ratio was 1.03.

In the case of TAGCTGCGCG, the switch fluorescence ratio turned out to be 0.992.

As to CTCGATCCTC, the switch fluorescence ratio worked out at 1.06.

Regarding TTCGTTTAGC, the switch fluorescence ratio came out at 0.971.

In the case of GGCTACACGG, the switch fluorescence ratio came out at 1.11.

For the sequence GCTGTCGCCG, the switch fluorescence ratio was 0.956.

Take ACCTGGACTT: the switch fluorescence ratio turned out to be 1.02.

In the case of CGGATGCTTG, the switch fluorescence ratio amounted to 1.07.

For the sequence CAATTTATTC, the switch fluorescence ratio came out at 1.02.
